This is one part of the list. Sequences were assembled here from the parent chain. Values near 0.05 are background.
B1: TEV protease; numbered along this chain (parent)
chain: MGESLFKGPRDYNPISSSICHLTNESDGHTTSLYGIGFGPFIITNKHLFRRNNGTLVVQSLHGVFKVKDTTTLQQHLVDGRDMIIIRMPKDFPPFPQKLKFREPQREERICLVTTNFQTKSMSSMVSDTSCTFPSGDGIFWKHWIQTKDGQCGSPLVSTRDGFIVGIHSASNFTNTNNYFTSVPKNFMELLTNQEAQQWVSGWRLNADSVLWGGHKVFMVKPEEPFQPVKEATQL

Variants of: B1
Assay: raw area under fraction-flipped curve 0-4 h after induction (AUC4h, not background-subtracted), DNA-recorder readout of cleavage of the substrate (dimensionless); higher = more cleavage of the substrate by the protease variant
Conditions: temperature: 34 °C; time window: 0-4 h after rhamnose induction
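Further: Bxb1 expression induced with 0.2% (w/v) L-rhamnose at OD600 near 0.5, cultures sampled hourly, flipped fraction per protease–substrate barcode pair counted by paired-end Illumina sequencing.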

Variant	area with substrate ENLYFQF	area with substrate ENLYFQI	area with substrate ENLYFQK	area with substrate ENLYFQL	area with substrate ENLYFQM	area with substrate ENLYFQR	area with substrate ENLYFQS	area with substrate ENLYFQY	area with substrate ENLYFQG	area with substrate ENLYFQH
MGESLFKGPRDYNPISSSICHLTNESDGHTTSLYGIGFGPFIITNKHLFRRNNGTLVVQSLHGVFKVKDTTTLQQHLVDGRDMIIIRMPKDFPPFPQKLKFREPQREERICLVTTNFQTKSMSSMVSDTSCTFPSGDGIFWKHWIQTKDGQCGSPLVSTRDGFIVGIHSASNFTNTNNYFTSVPKNFMELLTNQEAQQWVSGWRLNADSVLWGGTKVFMVKPEEPFQPVKEATQL [H215T]	0.118	0.057	0.0668	0.0692	0.0727	0.0861	0.0652	0.0453		
MGESLFKGPRDYNPISSSICHLTNESDGHTTSLYGIGFGPFIITNKHLFRRNNGTLVVQSLHGVFKVKDTTTLQQHLVDGRDMIIIRMPKDFPPFPQKLKFFEPQREERICLVTTNFQTKSMSSMVSDTSCTFPSGDGIFWKHWIQTKDGQCGSPLVSTRDGFIVGIHSASNFTNTNNYFTSVPKNFMELLTNQEAQQWVSGWRLNADSVLWGGHKVFMVKPEEPFQPVKEATQL [R102F]			0.0528	0.0508	0.0596		0.0548	0.0436	0.0546	0.0476
MGESLFKGPRDYNPISSSICHLTNESDGHTTSLYGIGFGPFIITNKHLFRRNNGTLVVQSLHGVFKVKDTTTLQQHLVDGRSMIIIRMPKDFPPFPQKLKFREPQREERICLVTTNFQTKSMSSMVSDTSCTFPSGDGIFWKHWIQTKDGQCGSPLVSTRDGFIVGIHSASNFTNTNNYFTSVPKNFMELLTNQEAQQWVSGWRLNADSVLWGGHKVFMVKPEEPFQPVKEATQL [D82S]		0.0571	0.0532	0.0661	0.0453	0.0721	0.0548		0.0402	0.0627
MGESLFKGPRDYNPISSSICHLTNESDGHTTSLYGIGFGPFIITNKHLFRRNNGTLVVQSLHGVFKVKDTTTLQQHLVDGRDMIIIRMPKDFPPFPQKLKFREPQREERICLVTTNFQTKSMSSMVSDTSCTFPSGDGIFWKHWIQTKDGQCGSPLVSTRDGFIVYIHSASNFTNTNNYFTSVPKNFMELLTNQEAQQWVSGWRLNADSVLWGGHKVFMVKPEEPFQPVKEATQL [G166Y]			0.0495	0.029		0.0496	0.0536		0.0261	
MGESLFKGPRDYNPISSSICHLTNESDGHTTSLYGIGFGPFIITNKHLFRRNNGTLVVQSLHGVFKVKDTTTLQQHLVDGRDMIIIRMPKDFPPFPQKLKFREPQREERICLVTTNFQTKSMSSMVSDTSCTFPSGDGIFWKHWIQTKDGQCGSPLVSTRDGFIVGIHSASNFTNTNNYFTSVPKNFMELLTNQEAQQWVSGWRLNAASVLWGGHKVFMVKPEEPFQPVKEATQL [D208A]				0.0673		0.0623	0.0764		0.0862	
MGESLFKGPRDYNPISSSICHLTNESDGHTTSLYGIGFGPFIITNKHLFRRNNGTLVVQSLHGVFKVKDTTTLQQHLVDGRDMIIIRMPKDFPPFPQKLKFREPQREERICLVTTNFQTKSMSSMVSDTSCTFPSGDGIFWKHWIQTKDGQCGSPLVSTRDGFIVGIHSASNFTNTNNYFTSVPKNFMELLTNQEAQQWVSGWRLNADSVLWGTHKVFMVKPEEPFQPVKEATQL [G214T]	0.0838					0.0562	0.0853		0.0961	0.0694
MGESLFKGPRDYNPISSSICHLTNESDGHTTSLYGIGFGPFIITNKHLFRRNNGTLVVQSLHGVFKVKDTTTLQQHLVCGRDMIIIRMPKDFPPFPQKLKFREPQREERICLVTTNFQTKSMSSMVSDTSCTFPSGDGIFWKHWIQTKDGQCGSPLVSTRDGFIVGIHSASNFTNTNNYFTSVPKNFMELLTNQEAQQWVSGWRLNADSVLWGGHKVFMVKPEEPFQPVKEATQL [D79C]		0.0576	0.0486			0.0678	0.102		0.0983	0.0697
MGESLFKGPRDYNPISSSICHLTNESDGHTTSLYGIGFGPFIITNKHLFRRNNGTLVVQSLHGVFKVKDTTTLQQHLVDGRDMIIMRMPKDFPPFPQKLKFREPQREERICLVTTNFQTKSMSSMVSDTSCTFPSGDGIFWKHWIQTKDGQCGSPLVSTRDGFIVGIHSASNFTNTNNYFTSVPKNFMELLTNQEAQQWVSGWRLNADSVLWGGHKVFMVKPEEPFQPVKEATQL [I86M]			0.0478	0.046	0.103	0.0532	0.101		0.112	0.13
MGESLFKGPRDYNPISSSICHLTNESDGHTTSLYGIGFGPFIITNKHLFRRNNGTLVVQSLHGVFKVKDTTTLQQHLVDGRDMIIIRMPKDFPPFPQKLKFREPQREERICLVTTNFQTKSMSSMVSDTSCTFPSGDGIFWKHWIQTKDGQCGSPLVSTRDGFIVGIHSASNFTNTNNYFTSVPKNFQELLTNQEAQQWVSGWRLNADSVLWGGHKVFMVKPEEPFQPVKEATQL [M188Q]		0.0519	0.0682	0.0704		0.0672	0.0998		0.0843	

Same assay, conditions: temperature: 34 °C; time window: 0-4 h after rhamnose induction

Variant	area with substrate ENLYFQW	area with substrate ENLYFQN	area with substrate ENLYFQP	area with substrate ENLYFQT	area with substrate ENLYFQV
MGESLFKGPRDYNPISSSICHLTNESDGHTTSLYGIGFGPFIITNKHLFRRNNGTLVVQSLHGVFKVKDTTTLQQHLVDGRDMIIIRMPKDFPPFPQKLKFFEPQREERICLVTTNFQTKSMSSMVSDTSCTFPSGDGIFWKHWIQTKDGQCGSPLVSTRDGFIVGIHSASNFTNTNNYFTSVPKNFMELLTNQEAQQWVSGWRLNADSVLWGGHKVFMVKPEEPFQPVKEATQL [R102F]	0.0462				
MGESLFKGPRDYNPISSSICHLTNESDGHTTSLYGIGFGPFIITNKHLFRRNNGTLVVQSLHGVFKVKDTTTLQQHLVDGRSMIIIRMPKDFPPFPQKLKFREPQREERICLVTTNFQTKSMSSMVSDTSCTFPSGDGIFWKHWIQTKDGQCGSPLVSTRDGFIVGIHSASNFTNTNNYFTSVPKNFMELLTNQEAQQWVSGWRLNADSVLWGGHKVFMVKPEEPFQPVKEATQL [D82S]	0.069	0.0548	0.0574		
MGESLFKGPRDYNPISSSICHLTNESDGHTTSLYGIGFGPFIITNKHLFRRNNGTLVVQSLHGVFKVKDTTTLQQHLVDGRDMIIIRMPKDFPPFPQKLKFREPQREERICLVTTNFQTKSMSSMVSDTSCTFPSGDGIFWKHWIQTKDGQCGSPLVSTRDGFIVYIHSASNFTNTNNYFTSVPKNFMELLTNQEAQQWVSGWRLNADSVLWGGHKVFMVKPEEPFQPVKEATQL [G166Y]	0.0322	0.0442		0.0292	0.0454
MGESLFKGPRDYNPISSSICHLTNESDGHTTSLYGIGFGPFIITNKHLFRRNNGTLVVQSLHGVFKVKDTTTLQQHLVDGRDMIIIRMPKDFPPFPQKLKFREPQREERICLVTTNFQTKSMSSMVSDTSCTFPSGDGIFWKHWIQTKDGQCGSPLVSTRDGFIVGIHSASNFTNTNNYFTSVPKNFMELLTNQEAQQWVSGWRLNAASVLWGGHKVFMVKPEEPFQPVKEATQL [D208A]					0.0855
MGESLFKGPRDYNPISSSICHLTNESDGHTTSLYGIGFGPFIITNKHLFRRNNGTLVVQSLHGVFKVKDTTTLQQHLVDGRDMIIIRMPKDFPPFPQKLKFREPQREERICLVTTNFQTKSMSSMVSDTSCTFPSGDGIFWKHWIQTKDGQCGSPLVSTRDGFIVGIHSASNFTNTNNYFTSVPKNFMELLTNQEAQQWVSGWRLNADSVLWGTHKVFMVKPEEPFQPVKEATQL [G214T]		0.0548			
MGESLFKGPRDYNPISSSICHLTNESDGHTTSLYGIGFGPFIITNKHLFRRNNGTLVVQSLHGVFKVKDTTTLQQHLVCGRDMIIIRMPKDFPPFPQKLKFREPQREERICLVTTNFQTKSMSSMVSDTSCTFPSGDGIFWKHWIQTKDGQCGSPLVSTRDGFIVGIHSASNFTNTNNYFTSVPKNFMELLTNQEAQQWVSGWRLNADSVLWGGHKVFMVKPEEPFQPVKEATQL [D79C]		0.066			0.0577
MGESLFKGPRDYNPISSSICHLTNESDGHTTSLYGIGFGPFIITNKHLFRRNNGTLVVQSLHGVFKVKDTTTLQQHLVDGRDMIIMRMPKDFPPFPQKLKFREPQREERICLVTTNFQTKSMSSMVSDTSCTFPSGDGIFWKHWIQTKDGQCGSPLVSTRDGFIVGIHSASNFTNTNNYFTSVPKNFMELLTNQEAQQWVSGWRLNADSVLWGGHKVFMVKPEEPFQPVKEATQL [I86M]		0.0765			0.0693
MGESLFKGPRDYNPISSSICHLTNESDGHTTSLYGIGFGPFIITNKHLFRRNNGTLVVQSLHGVFKVKDTTTLQQHLVDGRDMIIIRMPKDFPPFPQKLKFREPQREERICLVTTNFQTKSMSSMVSDTSCTFPSGDGIFWKHWIQTKDGQCGSPLVSTRDGFIVGIHSASNFTNTNNYFTSVPKNFQELLTNQEAQQWVSGWRLNADSVLWGGHKVFMVKPEEPFQPVKEATQL [M188Q]	0.0876	0.0658		0.0517	
